# According to paper PMC4336329 (PLoS ONE, 2015):
# Among all 310,000 compounds or so, about 14,000 (4.5%) showed an effect of 50% or more. Effects have a minus sign here. The list shows a part of the results.
# Target: human ether-à-go-go-related gene (hERG) potassium channel (human, UniProt Q12809)
# Experiment: primary screen, population patch clamp on CHO cells stably expressing hERG
# 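Also: peak tail current of the secondary pulse compared with the same well before compound.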
# Chain of human ether-à-go-go-related gene (hERG) potassium channel (Q12809 whole entry, looked up): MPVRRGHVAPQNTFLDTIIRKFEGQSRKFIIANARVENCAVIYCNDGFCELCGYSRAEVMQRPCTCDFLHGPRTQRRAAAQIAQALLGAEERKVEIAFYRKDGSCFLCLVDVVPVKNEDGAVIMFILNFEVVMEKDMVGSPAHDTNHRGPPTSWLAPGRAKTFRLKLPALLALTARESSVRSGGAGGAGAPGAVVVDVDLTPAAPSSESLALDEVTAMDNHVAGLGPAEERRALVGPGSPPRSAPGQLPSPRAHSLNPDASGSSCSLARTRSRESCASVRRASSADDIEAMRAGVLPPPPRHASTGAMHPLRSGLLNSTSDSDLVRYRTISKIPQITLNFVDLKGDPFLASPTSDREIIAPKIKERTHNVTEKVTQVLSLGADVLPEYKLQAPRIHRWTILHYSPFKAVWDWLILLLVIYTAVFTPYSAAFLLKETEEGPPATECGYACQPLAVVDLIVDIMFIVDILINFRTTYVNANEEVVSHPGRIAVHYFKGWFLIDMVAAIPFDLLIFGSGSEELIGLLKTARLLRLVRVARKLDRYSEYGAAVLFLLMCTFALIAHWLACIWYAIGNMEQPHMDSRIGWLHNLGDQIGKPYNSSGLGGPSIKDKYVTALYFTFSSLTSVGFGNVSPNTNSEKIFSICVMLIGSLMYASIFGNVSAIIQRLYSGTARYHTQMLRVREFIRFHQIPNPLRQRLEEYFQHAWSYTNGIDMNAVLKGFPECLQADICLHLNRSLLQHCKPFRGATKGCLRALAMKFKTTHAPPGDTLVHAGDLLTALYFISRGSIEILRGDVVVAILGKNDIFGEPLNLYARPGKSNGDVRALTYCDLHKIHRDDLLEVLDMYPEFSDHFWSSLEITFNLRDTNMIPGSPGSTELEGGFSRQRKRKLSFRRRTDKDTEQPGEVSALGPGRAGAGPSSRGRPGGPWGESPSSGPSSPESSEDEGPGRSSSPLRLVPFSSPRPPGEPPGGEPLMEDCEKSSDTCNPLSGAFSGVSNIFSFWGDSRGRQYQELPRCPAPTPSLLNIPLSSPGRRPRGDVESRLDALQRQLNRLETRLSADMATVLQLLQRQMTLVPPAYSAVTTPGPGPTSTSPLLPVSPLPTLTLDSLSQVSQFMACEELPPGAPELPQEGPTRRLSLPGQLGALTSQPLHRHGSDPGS
row,Compound,"hERG current change (%, negative = inhibition) at 10uM"
1,COC(=O)c1cn(NC(=O)Cc2ccc(Cl)cc2)c(=O)c2ccccc12,-47.7%
2,NC(=O)c1ccc(-n2nnnc2Oc2ccccc2)cc1,-1.43%
3,CCOc1ccc(NC(=O)n2ncc3c(C)cccc32)cc1,25.4%
4,CCOC(=O)C1CCCN(c2c(NCCN(C)Cc3ccccc3)c(=O)c2=O)C1 (stereo not shown),-4.11%
5,O=C(/C=C\c1ccccc1OC(=O)c1ccccc1F)c1cc2ccccc2o1,-3.12%
6,COc1ccc(-c2ccc(=O)[nH]n2)cc1,-5.84%
7,CCCCN1C(=O)/C(=C(/C#N)C(=O)N2CCCC2)c2ccccc21,-5.69%
8,CS(=O)(=O)N(CC(=O)N1CCOCC1)c1ccccc1Br,18%
9,CCOC(=O)c1cc(-c2ccc(C)cc2)nc2nc(SC)[nH]c(=O)c12,10.3%
10,CC(NC(=O)CSc1nnc(-c2cccc(S(=O)(=O)N3CCCCC3)c2)o1)C12CC3CC(CC(C3)C1)C2 (stereo not shown),4.04%
11,O=C(O)COc1ccc(/C=N/NC(=O)c2ccccc2Br)cc1,24.2%
12,CCOC(=O)Cn1nnnc1C(C(C)C)N(Cc1cccs1)Cc1cc2cc(C)ccc2[nH]c1=O (stereo not shown),-5.17%
13,Cc1cc(-c2ccc(C)c(S(=O)(=O)NCc3ccc(OC(C)C)cc3)c2)on1,-15.8%
14,NC(=O)C1CC(=O)N(c2ccc(OCc3ccc([N+](=O)[O-])cc3)cc2)C1 (stereo not shown),-30.8%
15,COCCNC(=O)C1Cc2cc(S(=O)(=O)N3CCCC3)ccc2N1C(C)=O (stereo not shown),17.4%
16,O=C(Nc1nc(-c2ccccc2Cl)cs1)c1cccnc1,-3.03%
17,Cc1[nH]c2ccccc2c1C(=O)CN1CCSCC1,5.84%
18,Cc1cc(NC(=O)CO/N=C/c2ccc3c(c2)OCO3)ccc1Br,30.4%
19,C/C(=N\NC(=O)c1cccnc1)c1ccc(OC2OCCOC2Oc2ccc(/C(C)=N/NC(=O)c3cccnc3)cc2)cc1 (stereo not shown),8.81%
20,Cc1ccc(S(=O)(=O)c2cc3c(=O)n4ccccc4nc3n(Cc3ccco3)c2=N)cc1C,-4.4%
21,COc1ccc(S(=O)(=O)N2CCOCC2)cc1NC(=O)COc1ccccc1OC,22.3%
22,O=C(C1=C[C@H](C2CC2)C[C@H](OCc2ccc(CO)cc2)O1)N1CCN(Cc2ccc3c(c2)OCO3)CC1,-57.8%
23,Cc1nn2cnnc2c(C)c1Cc1ccc(Cl)cc1,-11.9%
24,COc1ccccc1N1CCN(C(=O)c2ccc(C(C)(C)C)cc2)CC1,-18.6%
25,Cc1cc(C)n(-c2nc(NCCN(C)C)c3c4c(sc3n2)COC(C)(C)C4)n1,-32.7%
26,Cc1ccc(CCN2CC(C(=O)NCc3ccco3)CC2=O)cc1 (stereo not shown),-3.02%
27,O=C(Cn1nc(-c2ccccc2)c2ccccc2c1=O)Nc1ccc(O)cc1,19.3%
28,Cc1ccc(NS(=O)(=O)c2ccc(Cl)s2)cc1S(=O)(=O)N(C)C,-2.76%

row,Compound,"hERG current change (%, negative = inhibition) at 10uM"
1,CCCc1cc(C(=O)NNC(=S)NC(C)c2ccccc2)cs1 (stereo not shown),-1.15%
2,CN(Cc1cccc(Cl)c1Cl)CC(O)COc1ccccc1.O=C(O)C(=O)O (stereo not shown),-12%
3,C=CCn1c(N/N=C/c2ccc(O)cc2)nc2ccccc2c1=O,-17.9%
4,CCn1c(Cc2ccccc2)nnc1SCC(=O)Nc1ccccc1F,-5.46%
5,COc1ccc(CCNC(=O)C(=O)NCc2ccccn2)cc1,-5.07%
6,O=C1c2ccccc2CCC1C(O)c1ccccn1 (stereo not shown),17.4%
7,CC(=O)N(C1=C(N)C(=O)c2ccccc2C1=O)c1ccccc1,6.29%
8,Cc1nc2ccccc2cc1C(=O)NCc1ccco1,2.24%
9,O=C(CCCN1C(=O)c2ccccc2C1=O)Nc1nc2ccccc2[nH]1,3.32%
10,COC(=O)C1CCN(C(=O)CN2C(=O)c3ccccc3S2(=O)=O)CC1,14.1%
11,NNC(=O)c1nc(-c2ccccc2)n2c1CCCCC2,-0.541%
12,Cc1nc(N2CCN(C(=O)c3ccco3)CC2)[nH]c(=O)c1C,24.1%
13,Cc1ccc(NC(=S)N(CCCN2CCOCC2)Cc2cccnc2)cc1C,7.44%
14,CCN(CC)C(=O)N[C@H]1C[C@@H]2c3cccc4[nH]cc(c34)C[C@H]2N(C)C1,-12.1%
15,COC(=O)C(Cc1ccccc1)NC(=O)CCCC(=O)NCc1cccc(OC)c1 (stereo not shown),7.09%
16,COc1ccc(C(=O)CSc2nc(C)cc(C)n2)cc1C,-29.1%
17,Fc1cc(NCc2ccccc2)nc(NCc2ccccc2)n1,8.4%
18,Cc1ccnc(NC(=O)c2cccc(S(=O)(=O)N3CCN(c4ccccc4)CC3)c2)c1,-12.4%
19,COC(=O)CCCC1=CC2=C(c3ccccc3)C(=O)C(C)(OC(=O)C3CCCC3)C(=O)C2=CN1C1CCCCC1 (stereo not shown),-15.5%
20,COc1ccc(NS(=O)(=O)c2ccc3oc(SCc4ccc(F)cc4)nc3c2)cc1,-1.57%
21,O=C(NC1=NCCS1)c1ccc(Cl)c(S(=O)(=O)N2CCCCCC2)c1,-9.89%
22,CC(C)OC(=O)c1ccc(N2C(=O)C3CC=CCC3C2=O)cc1 (stereo not shown),19.9%
23,CCCC1S/C(=N/N=C/c2ccco2)NC1=O (stereo not shown),-9.19%
24,Nc1[nH]c(N=NC(=O)c2ccccc2O)c2ccccc12,-34.8%
25,Cc1cc(C(=O)NNc2c(Cl)cccc2Cl)no1,3.46%
26,COc1cc(NC(=O)COc2ccccc2Cl)ccc1NC(=O)c1cccs1,-12.1%
27,COc1ccc(CCNc2oc(Cc3ccccc3)nc2C#N)cc1OC,-34.9%
